About 50,000 (12%) of roughly 420,000 compounds were called active. Inconclusive results, whose numbers are uncertain, are shown with a selection of clear calls. Calls follow the shape of the dose curve; as a rule, active = well fitted inhibition curve with a large enough effect; inconclusive = small, poorly fitted or top-dose-only effect; inactive = flat fitted curve, though single readings scatter. Potencies of inconclusive entries are left out as doubtful fits.
Assay: qHTS for Inhibitors of human tyrosyl-DNA phosphodiesterase 1 (TDP1): qHTS in cells in presence of CPT; also: nearly all actives have a fitted effect of over 55% in size
Conditions: chicken DT40 Tdp1-/-;hTDP1 cells + 20 nM CPT, ATP luminescence, 48 h; series mostly up to 46.2 µM
In short: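 Cell growth measured by CellTiter-Glo luminescence after a minimum 48 h, 37 C compound exposure with 20 nM CPT in Tdp1-knockout DT40 cells stably expressing hTDP1, seeded 400/well; qHTS titration format.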
Potency is read from the fitted curve at half-maximal effect; tags tell the direction and shape of the fitted curve.

Row | Compound | Potency
1 | COc1ccc(Cn2ccc3nc(C)c(C(=O)Nc4ccc(C)c(F)c4)cc3c2=O)cc1 | inconclusive [inhibitor, single point]
2 | CCO[C@@H]1OC(C(=O)NCc2ccccc2)=C[C@H](c2csc3ccccc23)[C@H]1CCCO | inconclusive [inhibitor, single point]
3 | CC(C)N(C(=O)CSc1nc2ccccc2n1Cc1ccccc1F)C(C)C | active: 16.4 µM
4 | O=C(Nc1ccc(C(F)(F)F)cc1)c1cc(S(=O)(=O)NCC2COc3ccccc3O2)ccc1F (stereo not drawn) | inconclusive [inhibitor, single point]
5 | COc1ccc(NC(=O)c2ccccc2OCc2ccc(F)cc2)c(OC)c1 | inconclusive [inhibitor, single point]
6 | Cc1ccc(S(=O)(=O)N2C[C@]3(O)C[C@@H]4C(=O)N(c5ccccc5)C(=O)[C@@H]4C[C@]3(OC(=O)NC3CC3)C2)cc1 | inactive
7 | CCC1(CC)C(=O)N(C)C(=O)NC1=Nc1ccc(OC)cc1 | inactive
8 | OCC1(Cc2ccccc2C(F)(F)F)CCN(Cc2ccccc2)CC1 | inconclusive [inhibitor, partial curve, poor fit]
9 | CCCN(CCC)c1nc(N)nc(-c2cc(Cl)ccc2OC)n1 | inconclusive [inhibitor, single point]
10 | COc1ccc(C(=O)n2nc(C)c(Br)c2C)cc1OC | inactive
11 | Brc1cccc(C2Nc3cccc4cccc(c34)N2)c1 | inconclusive [inhibitor, single point]
12 | COCCn1nc2cc(C(=O)NCc3cc(C(F)(F)F)cc(C(F)(F)F)c3)ccc2c1OC | inconclusive [inhibitor, single point]
13 | CC(C)C(=O)Nc1cccc(NC(=S)NC(=O)c2ccccc2Cl)c1 | inconclusive [inhibitor, single point]
14 | COc1ccccc1NS(=O)(=O)c1cc(N)ccc1N1CCOCC1 | inconclusive [inhibitor, single point]
15 | COC(=O)C(Cc1ccccc1)NC(=S)NC(=O)c1ccccc1 (stereo not drawn) | inconclusive [inhibitor, single point]
16 | CCOC(=O)CNC(=O)Cn1cnc2c(nnn2-c2ccc(C)cc2)c1=O | inconclusive [inhibitor, single point]
17 | Cc1ccc(C)c(N(C(=O)c2csnn2)C(C(=O)NC2CCCCC2)c2ccccn2)c1 (stereo not drawn) | inactive
18 | COC(=O)CNS(=O)(=O)c1ccc(Cc2ccc(S(=O)(=O)NCC(=O)OC)cc2)cc1 | inactive
19 | CCOC(=O)[C@H]1[C@H]2COc3ccc(Cl)cc3[C@@H]2N2C(=O)c3cc(Br)ccc3NC(=O)[C@@]12C | active: 16.4 µM
20 | CCn1c(C)nc2cc(S(N)(=O)=O)ccc21 | inconclusive [inhibitor, partial curve, poor fit]
21 | O=C(Nc1ccn(CCCNC2CCN(Cc3ccccc3)CC2)c(=O)n1)OCc1ccccc1 | inconclusive [inhibitor, single point]
22 | O=C(Cc1nc2ccccc2[nH]1)c1ccc(Cl)cc1 | inconclusive [inhibitor, single point]

Row | Compound | Potency
23 | COc1ccc(-c2csc(N(CCCN(C)C)C(=O)c3ccccc3F)n2)cc1 | active: 9.2 µM
24 | CCSc1nc2c(c(=O)[nH]c(=O)n2C)n1CC(O)COc1ccc(Cl)cc1 (stereo not drawn) | inconclusive [inhibitor, partial curve]
25 | CCNc1nc(C23CC4CC(CC(C4)C2)C3)cs1 | inconclusive [inhibitor, single point]
26 | CC[n+]1cc(-c2ccccc2)nc(N2CCOCC2)n1 | inconclusive [inhibitor, single point]
27 | CCn1cc(CNC(=O)c2cc(COc3ccc(F)cc3F)on2)cn1 | inconclusive [inhibitor, single point]
28 | COc1ccc(N2CCN(C(=O)c3ccc4c(c3)CCN4S(C)(=O)=O)CC2)cc1 | inconclusive [inhibitor, single point]
29 | COC(=O)c1cc(OC)c(OC)cc1NC(=O)c1ccc(C)cc1 | inconclusive [inhibitor, single point]
30 | CC1(C(=O)NS(=O)(=O)c2ccccc2)CCN1C(=O)C1CCCCC1 (stereo not drawn) | inactive
31 | CCCCOC(=O)c1ccc(NC(=O)Cc2coc3ccc(C(C)C)cc23)cc1 | active: 25.9 µM
32 | COc1ccccc1-n1cnnc1SCC(=O)Nc1cc(C)on1 | inconclusive [inhibitor, single point]
33 | CN1CCN(CCOc2ccc(-c3ccccc3)cc2)CC1 | inconclusive [inhibitor, single point]
34 | COc1ccc(-c2nc(CN3CCC(C(=O)N4CCc5ccccc54)CC3)c(C)o2)cc1OC | inconclusive [inhibitor, single point]
35 | COc1cccc(CNc2nc(SC)ncc2CO)c1 | inconclusive [inhibitor, single point]
36 | Cc1ccc2c(c1)N(C(=O)N1CCC(C(=O)NCc3ccco3)CC1)CC(C)O2 (stereo not drawn) | inconclusive [inhibitor, single point]
37 | N#Cc1cc(-c2ccccc2)nn1-c1ccccc1 | inconclusive [inhibitor, partial curve]
38 | Cc1ccc(S(=O)(=O)CCC(=O)N2CCN(c3nc4c(C)c(Cl)ccc4s3)CC2)cc1 | active: 2.59 µM
39 | COc1ccc(CCCC(=O)Nc2ccc(F)cc2)cc1 | inactive
40 | NS(=O)(=O)c1ccc(NC(=O)c2nc(S(=O)(=O)Cc3ccccc3F)ncc2Cl)cc1 | active: 10 µM
41 | CC(OC(=O)c1cccc(S(=O)(=O)N2CCOCC2)c1)C(=O)NCC1CCCCC1 (stereo not drawn) | inactive
42 | O=C(/N=C1\NC(=O)C(F)(C(F)(F)F)S1)NC1CCCCC1 (stereo not drawn) | inconclusive [inhibitor, single point]
43 | O=C(CSc1nc2ncccc2[nH]1)Nc1ccccc1-c1ccccc1 | inconclusive [inhibitor, partial curve, poor fit]

— PubChem BioAssay AID686979 (National Center for Advancing Translational Sciences (NCATS), 2013)
